Measured values published in ChEMBL document CHEMBL4888484, “Replenishing the malaria drug discovery pipeline: Screening and hit evaluation of the MMV Hit Generation Library 1 (HGL1) against asexual blood stage Plasmodium falciparum ,using a nano luciferase reporter read-out” (2022).
Among all 150,000 compounds or so, about 540 (0.36%) showed an effect of 50% or more. Some of the results follow.

Each compound was assayed on Plasmodium falciparum (assay: Primary screen in NF54 nanoGlo assay, in single point, at 2uM, 72h; a lower Z score goes with more inhibition). Conditions: timepoint 72 hour.
Assay type: functional, Erythrocyte

SMILES | % Inhibition [%] | Z score
Cc1nc2c(c(N3CCN(c4c(N)c(C)nn4C)CC3)n1)CCCC2 | 7 | -1.3
CN(C)c1ccc(CNn2cnnc2)cc1 | -9 | 0.76
CN(C)[C@H]1CN(Cc2cc(C(C)(C)C)[nH]n2)C[C@@H]1C1CC1 | -21 | 2.73
CN1CCCN(S(=O)(=O)Cc2ccccc2)c2cc(F)ccc21 | 16 | -1.79
CCn1c(=O)c(N2CCC[C@H](C(=O)NCc3ccccc3OC)C2)nc2cccnc21 | 35 | -5.13
COc1cc2c(cc1OC)CN(C(=O)CN1CCc3[nH]ncc3C1)CC2 | 4 | -0.57
O=C(N[C@H]1CCCc2ccccc21)c1ccsc1 | 7 | -0.86
CCCN1CCC(NC(=O)c2ccc(-c3ccco3)nc2C)CC1 | -7 | 1.24
CCn1cc(CN2CC[C@H](CNC(=O)c3ncccc3O)C2)cn1 | -15 | 2.31
O=C(Cn1ncc2c([nH]c3ccccc32)c1=O)Nc1ccccn1 | 1 | -0.09
O=C(C1CCC1)N1CC(n2cc(-c3ccccc3)nn2)C1 | -17 | 2.14
COC(=O)c1ccc(C(=O)N2CCC(C(=O)N3CCCCCC3)CC2)cc1 | -8 | 1.02
CN(Cc1nnn(C)n1)C1CCN(Cc2ccccc2)CC1 | -3 | 0.59
CC(C)CC1(CNC(=O)[C@@H]2CCCC[C@@H]2C(=O)N2CCCC2)CCC1 | -9 | 0.98
O=C(Cn1cnc2ccccc21)N1CCN(c2ncccn2)CC1 | -19 | 2.76
Cc1nn(C2CCCCC2)c2nc(C3CCOCC3)[nH]c12 | -9 | 1.23
Cc1cn2c(C(=O)N3CCC[C@H]3c3nc(C(C)C)no3)csc2n1 | -27 | 2.42
CCc1cc(NC(=O)c2cncs2)nn1C | -9 | 0.9
CCCN(Cc1ccccc1)c1nnc(-c2ccccc2)n1C | -42 | 4.91
O=C(Nc1c(F)cccc1OCc1ccccc1)N1CC[C@H](O)C1 | -1 | 0.14
CCCn1c(NCc2cc(Cl)cc(Cl)c2O)nc2ccccc21 | 32 | -3.61

SMILES | % Inhibition [%] | Z score
CC(C)c1nccn1Cc1cc(C(=O)N[C@H]2CCCNC2=O)n[nH]1 | -21 | 2.2
CCCN1CCC(N[C@@H]2CC[C@@H]2NC(=O)C2=Cc3ccccc3OC=C2)CC1 | 7 | -1.07
Cc1n[nH]c(CN2CCC[C@H]2c2nccs2)c1Cl | 11 | -1.43
CCCNC(=O)N1CCc2cn(C)c3cccc(c23)C1 | -15 | 1.47
O=C(COCc1ccccc1)N1CCCn2nc([C@@H](O)C3CC3)cc2C1 | 2 | -0.47
CC1(C)C[C@]1(CNC(=O)c1cnc(C2CC2)nc1)c1ccccc1 | -20 | 1.92
Cc1nc(C)c(F)c(NCCCOC(C)C)n1 | 5 | -0.66
Cc1ccc(-c2nc(C)c(C(=O)O)c(=O)[nH]2)o1 | -9 | 1.16
COC(=O)N1CCC(NCc2nc3ccccc3n2C)CC1 | -4 | 0.62
COc1cc([C@H]2C(=O)N(C3CCCC3)CC(=O)N2CCc2ccc(Cl)cc2)ccc1OC(C)C | 0 | -0.03
O=C(NCc1ccncc1)c1csc2nc(-c3ccccc3Cl)cn12 | -18 | 2.43
Cc1[nH]c(=O)c(C(=O)N[C@H](CO)Cc2c[nH]c3ccccc23)c(C)c1Cl | -7 | 1.26
Cc1nccn1CCCC(=O)Nc1ccn(C(C)(C)C)n1 | 0 | -0.04
Cc1cc(CN)cc(NC(=O)CNC(=O)NC2CCCCC2)c1 | -1 | 0.08
O=C([C@@H]1CCCCn2nnnc21)N1CCC(c2ncon2)CC1 | -6 | 0.8
COC(CNC(=O)N(C)C(C)c1ccncc1)c1cccc(Cl)c1 (stereo not drawn) | 1 | -0.15
CCS(=O)(=O)N1CCC[C@H](c2cc(-c3ccc(F)cc3)n[nH]2)C1 | 2 | -0.29
Cc1nnc(CN(C)[C@H]2CCN(C(C)(C)C)C2=O)n1C | -24 | 3.61
CN1CCNC(=O)C[C@@H]2CN(S(=O)(=O)c3ccc(Cl)c(Cl)c3)C[C@@H]2n2cc(nn2)Cn2cccc(c2=O)C1=O | -8 | 1.43
O=S(=O)(c1ccc(F)cc1)N1CCC2(CC1)C[C@@H](Oc1cnccn1)CCO2 | -5 | 0.83
COc1cccc(CN2CCOC[C@@H]2CC(=O)NCc2c(C)n[nH]c2C)c1 | -7 | 1.31

SMILES | % Inhibition [%] | Z score
CCOc1ccccc1NC(=O)c1oc2ccccc2c1NC(=O)C(c1ccccc1)c1ccccc1 | -13 | 2.41
O=C(CC(c1ccccc1)c1ccccc1)N1CCCN(C2CCC2)CC1 | -7 | 1.27
CCN(CCNC(=O)c1nc(C)oc1C)c1ccccc1 | -12 | 1.64
O=C(CC(F)(F)F)N1CC[C@@H](c2cccs2)S(=O)(=O)CC1 | -16 | 2.81
CCc1ccc(CNC(=O)c2ccc(-c3noc(-c4ccccc4)n3)s2)cc1 | 7 | -0.86
CCCCNC(=O)c1cnn(C(C)C)c1N | 3 | -0.33
Cc1ncc(C(=O)N2C[C@@H](C)N(CCO)[C@@H](C)C2)c(C)n1 | -3 | 0.26
Cc1ccc(C(=O)N(C)CCCNC(=O)OC(C)(C)C)o1 | -3 | 0.6
CC(C)Oc1cncc(-c2ccc3c(c2)CNC3)c1 | 11 | -1.65
Brc1ccc([C@@H]2C[C@H](c3ccc(OCc4ccccc4)cc3)n3ncnc3N2)cc1 | -6 | 1.13
O=C(NCCCN1CCCC1=O)C(=O)Nc1cccc2nonc12 | -13 | 1.42
O=C(NC[C@@H]1C[C@H](F)CN1C(=O)c1n[nH]c2c1CCC2)C1CCCCC1 | -6 | 0.62
O=C1OCCN1c1ccccc1NS(=O)(=O)NCc1ccccc1 | -9 | 1.16
Cc1ccsc1NC(=O)OC(C)(C)C | 35 | -4.49
CCc1ncc2c(NCc3ccco3)nccn12 | -13 | 1.4
O=C(c1cccc(Br)c1)N1CCN(Cc2csc(-c3ccco3)n2)CC1 | -7 | 0.7
c1ccc(-c2ncc3c(n2)CCC[C@@H]3NCc2ncc[nH]2)cc1 | -18 | 1.67
CCOc1ccc(N2C[C@@H](c3nnc(NC(=O)COc4ccccc4C)o3)CC2=O)cc1 | -16 | 2.63
Cc1ccc(-c2ncc(C(=O)NCc3c(C)n[nH]c3C)c(O)n2)cc1 | 10 | -1.44
Cc1nc2n(n1)CCCC2NC1CCCc2sccc21 (stereo not drawn) | -5 | 0.41
CNc1nccc(OCc2ccccc2)n1 | 38 | -4.96

SMILES | % Inhibition [%] | Z score
O=C(NCc1ccccc1-c1ccsc1)c1cccnc1 | -3 | 0.54
CN1CCC(OCCCNC(=O)[C@]2(c3ccccc3)CC23CCCC3)CC1 | 1 | -0.13
CN1C[C@@H](Nc2c(F)cc(C#N)cc2F)CCC1=O | -5 | 0.56
O=C(c1ccc(F)cc1Cl)N1C[C@@H]2CN(C3CCCCC3)C[C@]2(C(=O)O)C1 | -7 | 1.38
O=C(c1cccnc1)N1CCC2(CC1)CN(Cc1ccccc1)C[C@@H]2c1ncco1 | -16 | 2.32
CCn1ccnc1CN1C[C@H](C(=O)O)[C@@H](C2CCCCC2)C1 | 9 | -1.52
O=c1nc(Nc2ccccc2)sn1Cc1ccccc1 | -14 | 2.01
COc1ccccc1-c1nnc2c3cc(C)ccc3nc(N3CCOCC3)n12 | -4 | 0.42
CCN(c1nc(COC)nc2scc(-c3ccccc3)c12)[C@H]1CCNC1=O | -6 | 0.96
CC[C@H](C)NC(=O)Cc1csc(Cc2ccccn2)n1 | -18 | 2.59
CS(=O)(=O)Cc1cccc(CNc2nccn(C3CC3)c2=O)c1 | -9 | 0.87
O[C@@H](CNCCOc1ccccc1F)COc1ccc2ccccc2c1 | 32 | -2.68
Cc1ccc(C(C)NC(c2nc(-c3nnc[nH]3)no2)C(C)(C)C)o1 (stereo not drawn) | -2 | 0.33
COc1cccc(C(=O)N2CCC(c3nc(-c4ccc5c(c4)OCO5)no3)CC2)c1OC | 42 | -6.01
COc1ccc(CC(=O)N2CCc3nc(N4CCN(C)CC4)nc(N4CCCC4)c3C2)cc1 | 4 | -0.78
O=C(C[C@@H]1C=CCC1)Nc1cccc(N2C(=O)CCNC2=O)c1 | -13 | 1.15
Cc1cc(-c2csc(NC(=O)c3cccnc3Oc3cccnc3)n2)c(C)o1 | 1 | -0.13
C[C@@H](c1cccc(C(F)(F)F)c1)N(C(=O)c1cc(F)cc(F)c1)C1CC1 | -9 | 1.14
COc1cccc(Cn2ncc3ccc(C(=O)NCCN4CCC[C@H](C)C4)cc32)c1 | -15 | 1.28
CNC(=O)c1ccc(CNC(=O)C2=C(C)Oc3ccccc3C2)cc1 | -15 | 1.56
COc1ccccc1C(=O)NC1=NN2C(=NC(c3ccc(Cl)cc3)=C[C@H]2c2ccc(Cl)cc2)N1 | 97 | -10.07
